{"source": "PubChem BioAssay (NCI)", "note": "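Cells were grown in 96-well plates and exposed to each compound for 48 hours at five concentrations; endpoints were interpolated linearly between bracketing concentrations, or set to the highest concentration if not reached. At the GI50, growth is halved. At the TGI there is no net growth.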"}
{"test_system": "NCI-H322M lung", "assay": "NCI tumour cell line growth inhibition, 48 h", "units": {"GI50": "µM", "TGI": "µM"}}
{"smiles": "Cc1ccc2c(n1)C(=O)C(Cl)=C(Nc1ccc(C#N)cc1)C2=O", "GI50": 31.8, "TGI": "> 100"}
{"smiles": "CC[C@]12C=CCN3CC[C@@]4(c5cc(NC(=O)COc6cc(O)c7c(=O)cc(-c8ccccc8)oc7c6)c(OC)cc5N(C)[C@H]4[C@@](O)(C(=O)OC)[C@@H]1OC(C)=O)[C@@H]32", "GI50": 1.76, "TGI": 3.84}
{"smiles": "C#CCOc1ccc(-c2csc(NC(=O)C=C)n2)cc1NS(=O)(=O)c1cccc2c(N(C)C)cccc12", "GI50": 7.12, "TGI": 19.1}
{"smiles": "C#C[C@]1(O)CC[C@H]2[C@@H]3CC=C4c5sc(Nc6ccc(C)cn6)nc5CC[C@]4(C)[C@H]3CC[C@@]21C", "GI50": 2.58, "TGI": 14.3}
